From ChEMBL document CHEMBL4888484, “Replenishing the malaria drug discovery pipeline: Screening and hit evaluation of the MMV Hit Generation Library 1 (HGL1) against asexual blood stage Plasmodium falciparum ,using a nano luciferase reporter read-out” (2022) come the findings set out here.

Hit rate of the full screen: of about 150,000 compounds, about 540 (0.36%) showed an effect of 50% or more. Some of the results follow.

For orientation: % Inhibition means the relative decrease from the control value, in per cent.

The experiment relates to Plasmodium falciparum. The experiment in a line: Primary screen in NF54 nanoGlo assay, in single point, at 2uM, 72h; a lower Z score goes with more inhibition. It is filed as functional, Erythrocyte. Particulars: timepoint 72 hour.
As for `COc1ccc2cc(-c3nc(CCN(C)C(=O)c4ccc(N(C)C)cc4)no3)[nH]c2c1`, the “% Inhibition” value is on record as -2% and the Z score came out at 0.46.

As to `CCOC(=O)Cc1csc(NC(=O)c2c[nH]c3c(F)cccc3c2=O)n1`, the “% Inhibition” value is given as -4% and the Z score is recorded as 0.47.

As to `NC(=O)C(NC(=O)NCCCC1CCCC1)C(N)=O`, the “% Inhibition” value was -7% and the Z score worked out at 1.27.

On to `O=C(COC(=O)CCS(=O)(=O)c1ccccc1)NC(=O)[C@@H]1COc2ccccc2O1`, for which the “% Inhibition” value was -8% and the Z score was 1.34.

Take `CCCS(=O)(=O)N1CCOc2ccc(CN3CCCCC3)cc2C1`: the “% Inhibition” value is -10% and the Z score is listed as 1.04.

For the molecule `COc1cccc(-c2cc(C(=O)NCc3ccccc3)n3nc(C(C)(C)C)cc3n2)c1`, the “% Inhibition” value was -6% and the Z score amounted to 0.94.

Turning to `O=C(Nc1ccc2c(c1)OCO2)N1C2CCC1CN(Cc1ccccc1)C2`, the “% Inhibition” value is -13% and the Z score is listed as 2.49.

Regarding `Cc1nnc2ccc(N3CCC(Cn4nc5c(cc4=O)CCC5)CC3)nn12`, the “% Inhibition” value is listed as -4% and the Z score is given as 0.63.

For `NC(=O)Cn1ccnc1C1CCN(C(=O)c2cc3ccccc3cn2)CC1`, the “% Inhibition” value is reported as -5% and the Z score was found to be 0.84.

As to `Cc1coc(-c2cccc(NC(=O)NC[C@H]3CCCS3(=O)=O)c2)n1`, the “% Inhibition” value is recorded as -13% and the Z score was 1.69.

For the molecule `CCCc1cc(C(=O)N[C@H]2Cc3ccccc3[C@@H]2N)no1`, the “% Inhibition” value was -13% and the Z score is listed as 1.8.

With `Cc1nc(CCNc2ccc(C(=O)N3CCC(C)CC3)cn2)sc1C`, the “% Inhibition” value was -13% and the Z score amounted to 2.17.

As for `O=C(c1cc(-c2ccccc2)nc2ccccc12)N1CCN(S(=O)(=O)c2ccccc2)CC1`, the “% Inhibition” value is listed as -10% and the Z score is recorded as 1.84.

Take `NC(=O)c1ccc(CNC(=O)c2cccc(-n3cccn3)n2)o1`: the “% Inhibition” value is -7% and the Z score is on record as 0.77.

With `N#Cc1cccc(NC(=O)C(=O)Nc2ccn(CCN3CCOCC3)n2)c1`, the “% Inhibition” value was -9% and the Z score came to 1.19.

Consider `COc1ccc(CNCc2cc3ccccc3nc2N2CCCCC2)cn1`, for which the “% Inhibition” value is 8% and the Z score is recorded as -1.22.

For the molecule `O=C(C[C@H]1CCc2ccccc2C1)NCCNc1ncccn1`, the “% Inhibition” value was -7% and the Z score was 1.38.

As to `CO[C@@H](CNC(=O)C(C)(C)C)c1ccc(C)s1`, the “% Inhibition” value is reported as -5% and the Z score is 0.78.

Take `CC(C)C(NC(=O)[C@H](O)c1ccccc1)C(=O)N(C)C` (stereo partly specified): the “% Inhibition” value was 2% and the Z score is listed as -0.29.

Regarding `O=C(c1cccc(S(=O)(=O)N2CC[C@@H](O)C2)c1)N1CCCCCCC1`, the “% Inhibition” value is reported as -11% and the Z score was 1.46.

Take `Cc1nnc(CN(C)C(=O)c2ccc3nc(C4CCCCC4)oc3c2)o1`: the “% Inhibition” value is given as -7% and the Z score is recorded as 1.22.

As to `Cc1cnc(C2CN(Cc3ccccn3)C2)n1CC1CC1`, the “% Inhibition” value is on record as -7% and the Z score stood at 1.18.

For the molecule `Cc1nn(-c2ccccc2)c2nc(C3CCOCC3)nc(N3CCN(C(=O)c4cccs4)CC3)c12`, the “% Inhibition” value is -7% and the Z score turned out to be 1.09.
